Laboratory results: PubChem BioAssay (Tox21)
“And” between values parts separate entries of the source, which are not always exact repeats. Identical values can stand only once. The shares of active, inactive and inconclusive entries below differ from those in the screen. For some assays here: A potency beside an inconclusive call is a rough fit, not a confirmed value. The source made the active and inactive calls. Unless noted, calls follow the shape of the full dose curve.

Columns and labels:
[1] = biological target: Peroxisome proliferator-activated receptor gamma (Homo sapiens) (UniProt P37231); assay: qHTS assay to identify small molecule agonists of the peroxisome proliferator-activated receptor gamma (PPARg) signaling pathway (AID 743094; active = well fitted activation curve with a large enough effect in the signal ratio in the repeat runs, not every such curve was filed as active; inconclusive = weak or mixed curves, or effect the other way; inactive = no such curve, though single readings can be large or run the other way; the % refers to the signal ratio; as to activation: % is scaled to controls: 0 for no effect and ±100 for the full control effect); settings: HEK293H PPARg-UAS-bla, beta-lactamase FRET ratio, 17 h; activation: at 57 µM (top of the series) unless noted
Outline: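 Following 5 h plating at 37C, PPARg-bla HEK293H cells receive compound or DMSO for 17 h; fluorescence intensity is recorded after LiveBLAzer B/G loading for 1 h at room temperature.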

[2] = biological target: Peroxisome proliferator-activated receptor gamma (Homo sapiens) (UniProt P37231); assay: qHTS assay to identify small molecule antagonists of the peroxisome proliferator-activated receptor gamma (PPARg) signaling pathway (AID 743191); settings: HEK293H PPARg-UAS-bla, beta-lactamase ratio, antagonist, 17 h; ratio activity, negative = inhibition: at 62.6 µM (top of the series) unless noted; also: nearly all actives have a fitted effect of over 30% in size; as to ratio activity, negative = inhibition: % is scaled to controls: 0 for no effect and ±100 for the full control effect
Outline: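 GeneBLAzer PPARg UAS-bla HEK293H cells carrying a UAS-driven beta-lactamase reporter were plated at 3000 cells/well, preincubated 5 h at 37C, then given compound for 17 h at 37C; LiveBLAzer B/G FRET substrate was read after 1 h at room temperature.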

[3] = qHTS assay for small molecule agonists of the antioxidant response element (ARE) signaling pathway (AID 743202; active = well fitted activation curve with a large enough effect in the signal ratio in the repeat runs, not every such curve was filed as active; inconclusive = weak or mixed curves, or effect the other way; inactive = no such curve, though single readings can be large or run the other way; the % refers to the signal ratio; as to activation: % is scaled to controls: 0 for no effect and ±100 for the full control effect); settings: HepG2 ARE-bla reporter, beta-lactamase FRET, 16 h; activation: at 73.3 µM (top of the series) unless noted
Outline: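 Compounds delivered in DMSO to ARE-bla HepG2 cells (2,000 cells/well, pre-incubated 5 h) and left 16 h at 37 C. LiveBLAzer B/G FRET substrate then added for 2 h at RT before fluorescence reading.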

[4] = qHTS assay for small molecule agonists of the antioxidant response element (ARE) signaling pathway - cell viability counter screen (AID 743203); settings: ARE-bla HepG2 viability, CellTiter-Glo luminescence, 16 h; viability change, negative = cytotoxic: at 73.3 µM (top of the series); also: nearly all actives have a fitted effect of over 55% in size
Outline: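 Compounds in DMSO were pinned onto ARE-bla HepG2 cells plated 5 hrs earlier at 2,000 cells/well. Sixteen hours later at 37C/5% CO2, CellTiter-Glo was added and luminescence measured after 30 min at room temperature.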

[5] = biological target: Peroxisome proliferator-activated receptor delta (Homo sapiens) (UniProt Q03181); assay: qHTS assay to identify small molecule antagonists of the peroxisome proliferator-activated receptor delta (PPARd) signaling pathway (AID 743215; active = well fitted inhibition curve with a large enough effect in the signal ratio in the repeat runs, not every such curve was filed as active; inconclusive = weak or mixed curves, or effect the other way; inactive = no such curve, though single readings can be large or run the other way; the % refers to the signal ratio;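 also: cells stimulated with agonist L165041 at 300 nM final during compound exposure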); settings: HEK293H PPARd-UAS-bla, beta-lactamase FRET ratio, antagonist, 17 h; ratio activity, negative = inhibition: at 62 µM (top of the series) unless noted
Outline: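 With L165041 present at 300 nM final, compounds were incubated 17 h at 37 C on PPARd UAS-bla HEK293H cells. A FRET-based beta-lactamase substrate was then applied for 2 h at room temperature and fluorescence intensity recorded.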

[6] = biological target: Bile acid receptor (Homo sapiens) (UniProt Q96RI1); assay: qHTS assay to identify small molecule antagonists of the farnesoid-X-receptor (FXR) signaling pathway (AID 743217; active = well fitted inhibition curve with a large enough effect in the signal ratio in the repeat runs, not every such curve was filed as active; inconclusive = weak or mixed curves, or effect the other way; inactive = no such curve, though single readings can be large or run the other way; the % refers to the signal ratio; as to activity change, negative = inhibition: % is scaled to controls: 0 for no effect and ±100 for the full control effect); settings: HEK293T FXR-UAS-bla, beta-lactamase ratio, CDCA-stimulated, 16 h; activity change, negative = inhibition: at 62.6 µM (top of the series) unless noted
Outline: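 In this cell-based antagonist screen, inhibition of CDCA-driven (50 uM final) UAS-beta-lactamase expression in HEK 293T cells was measured by FRET fluorescence following 16 h compound exposure at 37 °C.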

[7] = biological target: Vitamin D3 receptor (Homo sapiens) (UniProt P11473); assay: qHTS assay to identify small molecule agonists of the vitamin D receptor (VDR) signaling pathway (AID 743222); settings: HEK293T VDR-UAS-bla, beta-lactamase FRET ratio, 16 h; activation: at 63.5 µM (top of the series) unless noted
Outline: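 VDR-bla cells were seeded, left 4 h, treated with compounds in DMSO for 16 h, incubated 2 h at RT with B/G FRET substrate, and read for fluorescence.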

[8] = biological target: Vitamin D3 receptor (Homo sapiens) (UniProt P11473); assay: qHTS assay to identify small molecule antagonists of the vitamin D receptor (VDR) signaling pathway (AID 743223; active = well fitted inhibition curve with a large enough effect in the signal ratio in the repeat runs, not every such curve was filed as active; inconclusive = weak or mixed curves, or effect the other way; inactive = no such curve, though single readings can be large or run the other way; the % refers to the signal ratio); settings: VDR-UAS-bla HEK293T, beta-lactamase FRET ratio, 16 h; activity change, negative = inhibition: at 61 µM (top of the series) unless noted
Outline: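 After VDR-bla cells are plated and left 4 h at 37C, DMSO-dissolved compounds and 3 nM (final) calcitriol agonist are added. Incubation continues 16 h at 37C; FRET beta-lactamase substrate then develops 2 h at room temperature.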

[9] = qHTS assay to identify small molecule antagonists of the peroxisome proliferator-activated receptor delta (PPARd) signaling pathway - cell viability counter screen (AID 743213; active = well fitted curve in the direction sought with a large enough effect in the repeat runs; inconclusive = weak or mixed curves; inactive = no such curve, though single readings can be large; an effect the other way counts as inactive or inconclusive; also: nearly all actives have a fitted effect of over 50% in size); settings: PPARd-bla HEK293H viability, CellTiter-Glo luminescence, 17 h; viability change, negative = cytotoxic: at 62 µM (top of the series) unless noted
Outline: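 HEK293H cells with the PPARd UAS-bla reporter, co-treated 17 h at 37 C with compounds and L165041 (300 nM final), were lysed with CellTiter-Glo. Luminescence indicated viable cell content.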

[10] = biological target: Peroxisome proliferator-activated receptor delta (Homo sapiens) (UniProt Q03181); assay: qHTS assay to identify small molecule agonists of the peroxisome proliferator-activated receptor delta (PPARd) signaling pathway (AID 743212); settings: HEK293H PPARd-UAS-bla, beta-lactamase FRET ratio, 17 h; activation: at 62.6 µM (top of the series) unless noted
Outline: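 A PPARd-bla HEK293H line with beta-lactamase under an Upstream Activator Sequence is treated with compounds at 37 C. Substrate loading for 2 h at room temperature precedes the fluorescence measurement.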

[11] = qHTS assay for small molecule activators of the heat shock response signaling pathway - cell viability counter screen (AID 743209; active = well fitted curve in the direction sought with a large enough effect in the repeat runs; inconclusive = weak or mixed curves; inactive = no such curve, though single readings can be large; an effect the other way counts as inactive or inconclusive; also: nearly all actives have a fitted effect of over 50% in size); settings: HSE-bla HeLa viability, CellTiter-Glo luminescence, 5 h; activity change, negative = cytotoxicity: at 62.6 µM (top of the series) unless noted
Outline: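 Counter screen for cytotoxicity in HeLa HSE-bla reporter cells. Treatment was 5 h at 37 C; viability was detected by luminescent ATP assay (CellTiter-Glo) in the same wells as the beta-lactamase read.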

[12] = qHTS assay for small molecule activators of the heat shock response signaling pathway (AID 743210; active = well fitted activation curve with a large enough effect in the signal ratio in the repeat runs, with a control signal flat, not every such curve was filed as active; inconclusive = weak or mixed curves; the % refers to the signal ratio); settings: HeLa HSE-bla reporter, beta-lactamase ratio, 5 h; activation: at 62.6 µM (top of the series) unless noted
Outline: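 Reporter gene assay: HeLa cells stably bearing an HSE-bla construct, compound treatment 5 h at 37 C, LiveBLAzer substrate 2.5 h at RT, fluorescence intensity.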

[13] = qHTS assay to identify small molecule agonists of the peroxisome proliferator-activated receptor delta (PPARd) signaling pathway - cell viability counter screen (AID 743211; active = well fitted curve in the direction sought with a large enough effect in the repeat runs; inconclusive = weak or mixed curves; inactive = no such curve, though single readings can be large; an effect the other way counts as inactive or inconclusive; also: nearly all actives have a fitted effect of over 55% in size); settings: PPARd-bla HEK293H viability, CellTiter-Glo luminescence, 17 h; activity change, negative = cytotoxicity: at 62.6 µM (top of the series) unless noted
Outline: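 Multiplexed format: after the 2 h room-temperature LiveBLAzer B/G FRET step, CellTiter-Glo was added to the same wells. Luminescence after 30 min gave cell viability; compound exposure was 17 h at 37C.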

[14] = qHTS assay to identify small molecule agonists of the farnesoid-X-receptor (FXR) signaling pathway - cell viability counter screen (AID 743218; active = well fitted curve in the direction sought with a large enough effect in the repeat runs; inconclusive = weak or mixed curves; inactive = no such curve, though single readings can be large; an effect the other way counts as inactive or inconclusive; also: nearly all actives have a fitted effect of over 45% in size); settings: FXR-bla HEK293T viability, CellTiter-Glo luminescence, 16 h; viability change, negative = cytotoxic: at 62.6 µM (top of the series) unless noted
Outline: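 After 16 h at 37 C with test compounds, FXR-bla HEK 293T cells were given LiveBLAzer B/G substrate for 2 h at RT and then CellTiter-Glo; luminescence was taken after 30 min.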

[15] = biological target: Bile acid receptor (Homo sapiens) (UniProt Q96RI1); assay: qHTS assay to identify small molecule agonists of the farnesoid-X-receptor (FXR) signaling pathway (AID 743220; active = well fitted activation curve with a large enough effect in the signal ratio in the repeat runs, not every such curve was filed as active; inconclusive = weak or mixed curves, or effect the other way; the % refers to the signal ratio); settings: HEK293T FXR-UAS-bla, beta-lactamase FRET ratio, 16 h; activation: at 62.6 µM (top of the series) unless noted
Outline: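 Beta-lactamase reporter under UAS control in GeneBLAzer FXR HEK 293T cells (5000/well) measured with LiveBLAzer FRET substrate after 2 h at room temperature. Compound exposure lasted 16 h at 37C.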

[16] = qHTS assay to identify small molecule antagonists of the farnesoid-X-receptor (FXR) signaling pathway - cell viability counter screen (AID 743221; active = well fitted cell-killing curve with a large enough effect in the repeat runs, not every such curve was filed as active; inconclusive = weak or mixed curves, or effect the other way; inactive = no such curve, though single readings can be large or run the other way; also: nearly all actives have a fitted effect of over 50% in size); settings: FXR-bla HEK293T viability, CellTiter-Glo luminescence, 16 h; activity change, negative = cytotoxicity: at 62.6 µM (top of the series) unless noted
Outline: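 CellTiter-Glo, 30 min RT, luminescence; same wells as the LiveBLAzer FRET read. Cells: FXR-UAS-bla HEK 293T. Treatment: compound with chenodeoxycholic acid 50 uM final, 16 h at 37 C.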

[17] = qHTS assay to identify small molecule agonists of the vitamin D receptor (VDR) signaling pathway - cell viability counter screen (AID 743224; active = well fitted curve in the direction sought with a large enough effect in the repeat runs; inconclusive = weak or mixed curves; inactive = no such curve, though single readings can be large; an effect the other way counts as inactive or inconclusive; also: nearly all actives have a fitted effect of over 50% in size); settings: VDR-bla HEK293T viability, CellTiter-Glo luminescence, 16 h; activity change, negative = cytotoxicity: at 62.6 µM (top of the series)
Outline: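 Here cell health was gauged by luminescent ATP detection (CellTiter-Glo, 30 min RT) in VDR-bla cells that had been incubated with test compounds for 16 h at 37C and 5% CO2.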
Potency is read from the fitted curve at half-maximal effect; tags tell the direction and shape of the fitted curve or compound fluorescence and quenching.

Sequence of UniProt P11473 (P11473 whole entry, looked up): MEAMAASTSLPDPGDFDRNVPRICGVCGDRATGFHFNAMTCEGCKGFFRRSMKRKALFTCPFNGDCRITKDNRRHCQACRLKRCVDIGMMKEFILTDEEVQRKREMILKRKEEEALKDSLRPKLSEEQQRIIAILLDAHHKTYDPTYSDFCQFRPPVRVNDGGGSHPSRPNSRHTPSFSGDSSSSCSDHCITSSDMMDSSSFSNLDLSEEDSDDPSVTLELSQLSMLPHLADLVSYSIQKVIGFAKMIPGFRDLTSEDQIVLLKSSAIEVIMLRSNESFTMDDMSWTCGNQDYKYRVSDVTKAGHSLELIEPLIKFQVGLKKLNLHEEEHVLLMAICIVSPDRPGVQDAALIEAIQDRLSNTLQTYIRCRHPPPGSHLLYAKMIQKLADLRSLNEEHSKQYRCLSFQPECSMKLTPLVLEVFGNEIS
Sequence of UniProt Q03181 (Q03181 whole entry, looked up): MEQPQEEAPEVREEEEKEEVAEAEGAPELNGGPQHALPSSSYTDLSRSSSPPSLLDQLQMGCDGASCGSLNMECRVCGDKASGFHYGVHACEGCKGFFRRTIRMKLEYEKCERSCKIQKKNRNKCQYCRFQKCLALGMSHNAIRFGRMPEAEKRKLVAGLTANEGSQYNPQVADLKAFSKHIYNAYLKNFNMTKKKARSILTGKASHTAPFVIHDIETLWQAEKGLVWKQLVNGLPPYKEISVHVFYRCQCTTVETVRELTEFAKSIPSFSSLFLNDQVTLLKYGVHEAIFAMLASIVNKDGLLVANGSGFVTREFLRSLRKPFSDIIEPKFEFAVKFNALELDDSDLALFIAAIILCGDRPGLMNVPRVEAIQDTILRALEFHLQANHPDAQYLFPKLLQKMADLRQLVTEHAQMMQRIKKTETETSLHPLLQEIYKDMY
Sequence of UniProt Q96RI1 (Q96RI1 whole entry, looked up): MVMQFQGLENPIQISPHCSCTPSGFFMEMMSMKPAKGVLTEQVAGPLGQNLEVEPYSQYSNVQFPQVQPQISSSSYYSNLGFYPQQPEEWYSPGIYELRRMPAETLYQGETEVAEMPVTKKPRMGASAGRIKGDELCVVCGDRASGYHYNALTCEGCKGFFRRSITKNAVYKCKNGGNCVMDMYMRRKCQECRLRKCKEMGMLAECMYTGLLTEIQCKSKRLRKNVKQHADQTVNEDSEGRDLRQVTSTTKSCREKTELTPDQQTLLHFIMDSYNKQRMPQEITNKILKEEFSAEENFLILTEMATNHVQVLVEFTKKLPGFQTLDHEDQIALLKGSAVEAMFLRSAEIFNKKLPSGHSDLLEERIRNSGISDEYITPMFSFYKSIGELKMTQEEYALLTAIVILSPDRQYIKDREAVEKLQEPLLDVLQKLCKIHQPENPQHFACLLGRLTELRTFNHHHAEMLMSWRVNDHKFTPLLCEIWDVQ
Sequence of UniProt P37231 (P37231 whole entry, looked up): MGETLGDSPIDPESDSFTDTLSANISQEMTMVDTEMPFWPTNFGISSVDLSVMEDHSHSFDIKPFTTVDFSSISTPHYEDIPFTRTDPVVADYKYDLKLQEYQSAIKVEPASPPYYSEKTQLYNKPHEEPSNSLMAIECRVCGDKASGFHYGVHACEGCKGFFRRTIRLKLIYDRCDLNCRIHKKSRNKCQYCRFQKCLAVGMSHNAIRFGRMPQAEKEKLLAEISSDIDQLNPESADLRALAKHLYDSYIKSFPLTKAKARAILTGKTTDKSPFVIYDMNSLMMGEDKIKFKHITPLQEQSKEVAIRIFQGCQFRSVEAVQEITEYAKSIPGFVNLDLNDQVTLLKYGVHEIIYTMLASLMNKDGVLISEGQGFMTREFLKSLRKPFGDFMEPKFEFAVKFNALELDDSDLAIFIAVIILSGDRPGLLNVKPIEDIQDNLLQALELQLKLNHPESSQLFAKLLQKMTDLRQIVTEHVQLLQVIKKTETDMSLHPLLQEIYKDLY

## CC(=O)[C@H]1CC[C@H]2[C@@H]3CC=C4C[C@@H](O)CC[C@]4(C)[C@H]3CC[C@]12C
[1]
  activation: inconclusive: 1.58%
[2]
  Potency: inconclusive: 7.75 µM [activator] and inconclusive: 13.3 µM [activator, partial curve]
[3]
  Potency: active: 12.2 µM and inconclusive: 9.44 µM
[4]
  Potency: inconclusive: 26.6 µM [rising, single point]
[5]
  Potency: inconclusive: 11.9 µM [fluorescent, partial curve]
[6]
  activity change, negative = inhibition: inconclusive: -22.7%
[7]
  Potency: inconclusive: 21.8 µM [rising, single point]
[8]
  Potency: inconclusive: 9.52 µM [fluorescent, partial curve, poor fit]

## N#C[C@@H]1C[C@@H]2C[C@@H]2N1C(=O)[C@@H](N)C12CC3CC(CC(O)(C3)C1)C2
[1]
  Potency: inactive
[2]
  ratio activity, negative = inhibition: inconclusive: -12.5%
[3]
  Potency: inactive
[9]
  Potency: inconclusive: 3.76 µM [cytotoxic, single point]
[8]
  activity change, negative = inhibition: inconclusive: -2.98%

## Cc1cccc([N+](=O)[O-])c1C
[1]
  Potency: inactive
[2]
  Potency: inactive and inconclusive: 54.9 µM [fluorescent]
[3]
  Potency: inactive
[10]
  Potency: inactive
[7]
  Potency: inactive
[8]
  Potency: inactive

## C=C/C(C)=C/C/C=C(\C)CCC=C(C)C
[1]
  Potency: inconclusive: 61.7 µM [rising, partial curve, poor fit]
[2]
  Potency: inconclusive: 54.9 µM [inhibitor, single point]
[3]
  Potency: active: 54.5 µM
[11]
  Potency: inconclusive: 54.9 µM [cytotoxic, single point]
[12]
  Potency: inconclusive: 54.9 µM [rising, single point]
[13]
  Potency: inconclusive: 13.8 µM [cytotoxic, full curve]
[14]
  Potency: inconclusive: 4.36 µM [cytotoxic, full curve, poor fit]
[15]
  Potency: inconclusive: 61.7 µM [fluorescent, partial curve, poor fit]
[7]
  Potency: inconclusive: 54.9 µM [rising, partial curve, poor fit]

## CC(O)c1ccccc1 (configuration not stated)
[1]
  Potency: inactive
[2]
  Potency: inactive
[3]
  Potency: inactive

## CN=C(N)NC(=O)Nc1c(C)cccc1C
[1]
  Potency: inactive
[2]
  Potency: inactive
[3]
  Potency: inactive
[11]
  Potency: inconclusive: 0.298 µM [cytotoxic, single point]

## COC(=O)Nc1nc2ccc(C(=O)c3ccccc3)cc2[nH]1
[1]
  Potency: inactive
[2]
  ratio activity, negative = inhibition: inconclusive: -45.4%
[3]
  activation: inconclusive: 21.6%
[4]
  Potency: inconclusive: 2.37 µM [rising, full curve, poor fit]
[6]
  Potency: active: 1.06 µM
[8]
  Potency: inconclusive: 0.338 µM [inhibitor, full curve]

## CN(C)CCC=C1c2ccccc2C=Cc2ccccc21
[1]
  Potency: inactive
[2]
  ratio activity, negative = inhibition: inconclusive: -23%
[3]
  activation: inconclusive: -24.1%
[13]
  Potency: inconclusive: 29.8 µM [cytotoxic, partial curve]
[10]
  Potency: inconclusive: 33.5 µM [rising, single point]
[14]
  Potency: active: 11.9 µM
[16]
  Potency: inconclusive: 33.5 µM [falling, single point]

## CN1CC[C@H](c2c(O)cc(O)c3c(=O)cc(-c4ccccc4Cl)oc23)[C@H](O)C1
[1]
  Potency: inconclusive: 0.213 µM [inhibitor]
[2]
  Potency: inconclusive: 0.422 µM [rising, full curve]
[3]
  Potency: inconclusive: 1.68 µM [rising, full curve]
[11]
  Potency: inconclusive: 0.106 µM [cytotoxic, full curve, poor fit]
[5]
  Potency: inconclusive: 0.668 µM [rising, full curve]
[7]
  Potency: inconclusive: 6.68 µM [rising, partial curve]
[8]
  Potency: inconclusive: 0.535 µM [rising, full curve]
[17]
  Potency: inconclusive: 0.0668 µM [cytotoxic, full curve, poor fit]

## Cc1ccc(CO)cc1
[1]
  Potency: inactive
[2]
  Potency: inactive
[3]
  activation: inconclusive: -3.84% [at 94.8 µM]
[6]
  Potency: inactive

## Cc1ccc2c(c1)C(=O)OC2=O
[1]
  activation: inconclusive: -0.722%
[2]
  ratio activity, negative = inhibition: inconclusive: 18.7%
[3]
  Potency: inactive
[5]
  Potency: inactive

## CCOC(=O)[C@H](CCc1ccccc1)N[C@H]1CCc2ccccc2N(CC(=O)O)C1=O
[1]
  Potency: inconclusive: 16.9 µM [fluorescent]
[2]
  Potency: inconclusive: 26.6 µM [fluorescent, partial curve, poor fit]
[3]
  Potency: inconclusive: 33.5 µM [falling, single point]
[4]
  Potency: inconclusive: 33.5 µM [cytotoxic]
[11]
  Potency: inconclusive: 1.06 µM [rising, partial curve, poor fit]
[12]
  Potency: inconclusive: 29.8 µM [activator, partial curve]
[10]
  Potency: inconclusive: 16.8 µM [rising, partial curve]
[9]
  Potency: active: 26.6 µM
[14]
  Potency: inconclusive: 11.9 µM [cytotoxic, partial curve]
[16]
  Potency: active: 29.8 µM
[7]
  Potency: inconclusive: 33.5 µM [fluorescent, single point]
[8]
  Potency: inconclusive: 21.3 µM [fluorescent, partial curve]
[17]
  Potency: active: 21.1 µM
